Source: a collection of fitness landscapes (doi:10.1016/j.celrep.2020.107928)
In all, about 81,000 sequences were measured (“one-hybrid fitness for binding NBS DNA”: median about -0.1, highest 2% from about 0.36 on). The list shows a part of the results.

B1: Caulobacter ParB omega fusion; a variant is named by its letters at X, in order, B8GW30 (parent)
chain: MESVVVGEPGMSEGRRGLGRGLSALLGEVDAAPAQAPGEQLGGSREAPIEILQRNPDQPRRTFREEDLEDLSNSIREKGVLQPILVRPSPDTAGEYQIVAGERAWRAAQRAGLKTVPIMVRELDDLAVLEIGIIENVQRADLNVLEEALSYKVLMEKFERTQENIAQTIGKSXSHVANXMRLLXLPDEVQSYLVSGELTAXHARAIAAAADPVALAKQIIEGGLSVRETEALARKAPNLSAGKSKGGRPPRVKDTDTQALESDLSSVLGLDVSIDHRGSTGTLTITYATLEQLDDLCNRLTRGI

Variants of: B1
Assay: one-hybrid fitness for binding NBS DNA (the Noc-binding site; scaled: cognate 1, non-cognate 0); higher = stronger binding
Conditions: with NBS DNA site
Procedure, shortened: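 Selection: bacterial one-hybrid in E. coli USO, HIS3 reporter with the site 19 bp from the promoter, 48 hours at 37°C on M9-minus-histidine plus 0.1 mM IPTG and 5 mM 3-AT. Libraries were Caulobacter ParB with four randomised specificity codons, sequenced on Illumina before and after selection. Fitness is the rescaled log change in variant-to-wild-type read ratio, anchored to the cognate and non-cognate sites.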

Row | Variant | one-hybrid fitness for binding NBS DNA
1 | HRGT | ≤ 0.2
2 | NMKV | ≤ 0.2
3 | QTFG | ≤ 0.2
4 | AIPM | ≤ 0.2
5 | VPHM | ≤ 0.2
6 | NYWL | ≤ 0.2
7 | NWLR | ≤ 0.2
8 | CNGN | ≤ 0.2
9 | YTHC | ≤ 0.2
10 | MKPT | ≤ 0.2
11 | MDMS | ≤ 0.2
12 | ELHC | ≤ 0.2
13 | KYNS | ≤ 0.2
14 | AEVV | ≤ 0.2
15 | QAYP | ≤ 0.2
16 | SNTL | ≤ 0.2
17 | QHLA | ≤ 0.2
18 | HPWG | ≤ 0.2
19 | SNSG | ≤ 0.2
20 | QYIY | ≤ 0.2
21 | VIIE | ≤ 0.2
22 | TDQS | ≤ 0.2
23 | GAEY | ≤ 0.2
24 | RING | ≤ 0.2
25 | VIII | ≤ 0.2
26 | VHKS | ≤ 0.2

Row | Variant | one-hybrid fitness for binding NBS DNA
27 | FRFT | ≤ 0.2
28 | RYLE | ≤ 0.2
29 | IAED | ≤ 0.2
30 | FSTY | ≤ 0.2
31 | NMIS | ≤ 0.2
32 | FLTF | ≤ 0.2
33 | ADRL | ≤ 0.2
34 | PVVC | ≤ 0.2
35 | CSHG | ≤ 0.2
36 | PDFY | ≤ 0.2
37 | GVNQ | ≤ 0.2
38 | ARLG | ≤ 0.2
39 | RFTI | ≤ 0.2
40 | KVHE | ≤ 0.2
41 | ESET | ≤ 0.2
42 | GIEK | ≤ 0.2
43 | CVLD | ≤ 0.2
44 | KTRF | ≤ 0.2
45 | HRES | ≤ 0.2
46 | VNQG | ≤ 0.2
47 | AMHG | ≤ 0.2
48 | AVMS | ≤ 0.2
49 | MFVR | ≤ 0.2
50 | PKDM | ≤ 0.2
51 | VYST | ≤ 0.2
52 | CLKC | ≤ 0.2

Row | Variant | one-hybrid fitness for binding NBS DNA
53 | ANPQ | ≤ 0.2
54 | PTWT | ≤ 0.2
55 | TVTA | 0.309
56 | RWEI | ≤ 0.2
57 | SRPQ | ≤ 0.2
58 | NLEI | ≤ 0.2
59 | MQLT | ≤ 0.2
60 | SVPV | ≤ 0.2
61 | NFPD | ≤ 0.2
62 | SDLC | ≤ 0.2
63 | EGAR | ≤ 0.2
64 | AYYW | ≤ 0.2
65 | HIIG | ≤ 0.2
66 | PREY | ≤ 0.2
67 | MPKS | ≤ 0.2
68 | RHMH | ≤ 0.2
69 | TALC | ≤ 0.2
70 | RYKM | 0.206
71 | ISNL | ≤ 0.2
72 | QCTT | 0.486
73 | IGTT | ≤ 0.2
74 | NNPN | ≤ 0.2
75 | SGEF | ≤ 0.2
76 | KFKC | ≤ 0.2
77 | STAY | ≤ 0.2
78 | ERTG | ≤ 0.2

Row | Variant | one-hybrid fitness for binding NBS DNA
79 | QPLW | ≤ 0.2
80 | CQNK | ≤ 0.2
81 | WPLI | ≤ 0.2
82 | QRAF | 0.302
83 | QLVV | ≤ 0.2
84 | RLWE | ≤ 0.2
85 | SAPY | ≤ 0.2
86 | HCDN | ≤ 0.2
87 | PQPG | ≤ 0.2
88 | RFKC | ≤ 0.2
89 | NTTM | ≤ 0.2
90 | RLCG | ≤ 0.2
91 | KTKR | 0.555
92 | RISD | ≤ 0.2
93 | IARS | ≤ 0.2
94 | CLDT | ≤ 0.2
95 | GFDG | ≤ 0.2
96 | CPFR | ≤ 0.2
97 | WNSG | ≤ 0.2
98 | GIGS | ≤ 0.2
99 | YYQR | ≤ 0.2
100 | SASK | ≤ 0.2
101 | QLGS | 0.322
102 | TAGV | ≤ 0.2
103 | RQKV | 0.237
104 | LDEQ | ≤ 0.2

Row | Variant | one-hybrid fitness for binding NBS DNA
105 | DRES | ≤ 0.2
106 | NHSY | ≤ 0.2
107 | YDVW | ≤ 0.2
108 | PVQC | ≤ 0.2
109 | FQDC | ≤ 0.2
110 | ISES | ≤ 0.2
111 | YKIS | ≤ 0.2
112 | FAQL | ≤ 0.2
113 | TEEA | ≤ 0.2
114 | PHAW | ≤ 0.2
115 | THPQ | ≤ 0.2
116 | NASC | ≤ 0.2
117 | SYQS | ≤ 0.2
118 | PRKL | ≤ 0.2
119 | ASKS | ≤ 0.2
120 | SEVG | ≤ 0.2
121 | SEHT | ≤ 0.2
122 | CSCG | ≤ 0.2
123 | ANRL | ≤ 0.2
124 | LTAD | ≤ 0.2
125 | YREE | ≤ 0.2
126 | QTKI | 0.468
127 | LQMV | ≤ 0.2
128 | MHVY | ≤ 0.2
129 | FTSQ | ≤ 0.2
130 | DTQF | ≤ 0.2

Row | Variant | one-hybrid fitness for binding NBS DNA
131 | PEKM | ≤ 0.2
132 | ALSA | ≤ 0.2
133 | RTVH | ≤ 0.2
134 | IQMT | ≤ 0.2
135 | QQYM | ≤ 0.2
136 | IADR | ≤ 0.2
137 | GVYF | ≤ 0.2
138 | TDNS | ≤ 0.2
139 | NPLY | ≤ 0.2
140 | SNQS | ≤ 0.2
141 | IFSA | ≤ 0.2
142 | SYNR | ≤ 0.2
143 | CAYG | ≤ 0.2
144 | PFQT | ≤ 0.2
145 | QEDS | ≤ 0.2
146 | NIPY | ≤ 0.2
147 | LWAY | ≤ 0.2
148 | MIGI | ≤ 0.2
149 | MSIS | ≤ 0.2
150 | MCNS | ≤ 0.2
151 | NFQG | ≤ 0.2
152 | SGTV | ≤ 0.2
153 | QMIP | ≤ 0.2
